System: patients with advanced solid tumours
Conditions: treatment-emergent, any grade; All patients (N=85), all arms

CNCc1ccc(-c2[nH]c3cc(F)cc4c3c2CCNC4=O)cc1 [rucaparib]
Abdominal pain: 19 (22.4) n (%) | Abdominal pain upper: 8 (9.4) n (%) | Alopecia: 15 (17.6) n (%) | Anaemia: 34 (40.0) n (%) | Arthralgia: 11 (12.9) n (%) | Asthenia: 4 (4.7) n (%) | Back pain: 15 (17.6) n (%) | Constipation: 42 (49.4) n (%) | Cough: 16 (18.8) n (%) | Decreased appetite: 23 (27.1) n (%) | Diarrhoea: 33 (38.8) n (%) | Dyspepsia: 12 (14.1) n (%) | Dyspnoea: 19 (22.4) n (%) | Epistaxis: 6 (7.1) n (%) | Fatigue: 53 (62.4) n (%) | Headache: 19 (22.4) n (%) | Influenza-like illness: 4 (4.7) n (%) | Insomnia: 9 (10.6) n (%) | Nausea: 58 (68.2) n (%) | Neutropenia: 34 (40.0) n (%) | Oral candidiasis: 11 (12.9) n (%) | Pyrexia: 14 (16.5) n (%) | Tachycardia: 6 (7.1) n (%) | Thrombocytopenia: 29 (34.1) n (%) | Vomiting: 38 (44.7) n (%)

Reference: publication PMC5379148, “A phase I study of intravenous and oral rucaparib in combination with chemotherapy in patients with advanced solid tumours” (British Journal of Cancer, 2017)
